The assay addresses T1, native hThrRS-L, endogenous in HEK293T (human (endogenous in HEK293T)) (UniProt A2RTX5).
T1 sequence: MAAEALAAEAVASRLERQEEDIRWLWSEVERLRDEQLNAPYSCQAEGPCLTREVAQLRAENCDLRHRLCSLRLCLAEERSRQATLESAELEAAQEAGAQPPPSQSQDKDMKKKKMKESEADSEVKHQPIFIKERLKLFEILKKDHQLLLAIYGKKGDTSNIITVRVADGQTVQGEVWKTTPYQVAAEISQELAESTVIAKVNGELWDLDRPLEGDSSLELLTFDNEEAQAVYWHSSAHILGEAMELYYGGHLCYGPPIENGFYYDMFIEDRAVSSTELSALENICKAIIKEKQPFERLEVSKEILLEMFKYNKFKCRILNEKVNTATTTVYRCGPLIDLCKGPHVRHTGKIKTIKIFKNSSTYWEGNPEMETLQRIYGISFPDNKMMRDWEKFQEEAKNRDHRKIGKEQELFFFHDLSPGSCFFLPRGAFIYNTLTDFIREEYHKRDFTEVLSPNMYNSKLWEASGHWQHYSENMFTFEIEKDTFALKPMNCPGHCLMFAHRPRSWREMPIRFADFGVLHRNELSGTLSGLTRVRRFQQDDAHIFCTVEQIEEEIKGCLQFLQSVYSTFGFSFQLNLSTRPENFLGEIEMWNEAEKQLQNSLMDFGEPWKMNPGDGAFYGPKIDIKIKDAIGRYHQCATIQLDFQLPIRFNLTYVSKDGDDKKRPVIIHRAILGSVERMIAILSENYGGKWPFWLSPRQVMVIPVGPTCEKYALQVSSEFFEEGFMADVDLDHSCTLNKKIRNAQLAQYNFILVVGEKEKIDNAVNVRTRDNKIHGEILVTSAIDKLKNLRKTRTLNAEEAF
Kind of assay: co-IP; native HEK293T cell lysate, IP with anti-hThrRS-L antibodies; western blotting. A general note: In western blotting, separated proteins are transferred to a membrane and probed.

Amino acid sequences for entries named in this document (tags omitted).
UniProt P07814: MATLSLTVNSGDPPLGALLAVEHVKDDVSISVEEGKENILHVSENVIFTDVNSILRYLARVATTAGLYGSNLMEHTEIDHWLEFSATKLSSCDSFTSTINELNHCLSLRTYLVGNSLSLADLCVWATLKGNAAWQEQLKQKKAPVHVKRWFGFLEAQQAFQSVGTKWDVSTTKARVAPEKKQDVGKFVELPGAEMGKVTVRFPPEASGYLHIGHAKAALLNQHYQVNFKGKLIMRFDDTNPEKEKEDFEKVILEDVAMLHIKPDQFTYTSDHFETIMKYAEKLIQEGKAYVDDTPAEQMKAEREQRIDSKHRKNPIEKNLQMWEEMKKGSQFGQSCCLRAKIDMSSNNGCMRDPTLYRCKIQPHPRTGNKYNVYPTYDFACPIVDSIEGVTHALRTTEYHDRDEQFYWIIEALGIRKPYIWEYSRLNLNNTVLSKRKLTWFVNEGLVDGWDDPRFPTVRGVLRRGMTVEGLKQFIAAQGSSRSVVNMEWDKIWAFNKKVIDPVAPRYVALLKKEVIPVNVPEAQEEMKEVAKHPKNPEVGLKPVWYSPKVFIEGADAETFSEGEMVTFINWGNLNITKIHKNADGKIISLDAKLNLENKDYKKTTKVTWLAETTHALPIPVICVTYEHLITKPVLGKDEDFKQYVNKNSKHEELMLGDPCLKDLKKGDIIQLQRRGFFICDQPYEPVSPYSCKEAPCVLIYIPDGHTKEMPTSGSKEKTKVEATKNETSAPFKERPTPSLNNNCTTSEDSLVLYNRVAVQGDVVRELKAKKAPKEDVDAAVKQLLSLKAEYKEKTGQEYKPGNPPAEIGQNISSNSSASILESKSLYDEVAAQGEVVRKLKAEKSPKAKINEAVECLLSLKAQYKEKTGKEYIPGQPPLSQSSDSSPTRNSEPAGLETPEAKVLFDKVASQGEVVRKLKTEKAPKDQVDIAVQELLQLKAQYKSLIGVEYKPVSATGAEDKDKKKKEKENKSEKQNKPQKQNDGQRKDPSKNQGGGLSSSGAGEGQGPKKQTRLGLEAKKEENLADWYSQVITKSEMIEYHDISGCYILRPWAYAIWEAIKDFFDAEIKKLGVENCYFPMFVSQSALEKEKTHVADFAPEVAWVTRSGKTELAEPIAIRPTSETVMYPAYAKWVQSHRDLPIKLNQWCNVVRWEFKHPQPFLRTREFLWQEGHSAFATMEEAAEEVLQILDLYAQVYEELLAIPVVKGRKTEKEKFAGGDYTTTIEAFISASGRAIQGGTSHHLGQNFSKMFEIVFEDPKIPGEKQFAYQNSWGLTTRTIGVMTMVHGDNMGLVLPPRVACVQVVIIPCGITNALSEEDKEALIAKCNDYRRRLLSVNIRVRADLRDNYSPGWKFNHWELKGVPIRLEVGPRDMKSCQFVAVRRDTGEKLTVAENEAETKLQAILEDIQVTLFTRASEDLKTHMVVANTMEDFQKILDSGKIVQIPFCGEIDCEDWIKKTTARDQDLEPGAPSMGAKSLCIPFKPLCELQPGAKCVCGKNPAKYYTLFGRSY

These are yes or no findings as the source states them, for the method shown. In cells and extracts the contact can be indirect. Some binding calls cover weakened binding; strength is not graded here.

Regarding “GluProRS, endogenous in HEK293T (from UniProt P07814 1-1512) (enzyme)”, the binding result is on record as “binds”.

The values above are taken from PMC6794377.
